In all, about 220,000 compounds went through this assay and about 5,700 (2.6%) were called active. Inconclusive means that the source gave no clear call. Such entries were picked first, then a sample of the others. The call rests on the fitted dose curve; in most records, active means well fitted inhibition curve with a large enough effect; inconclusive means small, poorly fitted or top-dose-only effect; inactive means no such curve, though single readings can be large or run the other way. Where the call is inconclusive, the potency comes from a doubtful curve fit.
These molecules were tested against Lysine-specific demethylase 5B (Homo sapiens) (UniProt Q9UGL1) (assay: Primary screen for KDM5B Histone Demethylases FDH-coupled qHTS). Settings: FDH-coupled NADH fluorescence (FDH is formaldehyde dehydrogenase); activity change, negative = inhibition: at 57.7 µM (top of the series) unless noted.
UniProt Q9UGL1, sequence (Q9UGL1 whole entry, looked up): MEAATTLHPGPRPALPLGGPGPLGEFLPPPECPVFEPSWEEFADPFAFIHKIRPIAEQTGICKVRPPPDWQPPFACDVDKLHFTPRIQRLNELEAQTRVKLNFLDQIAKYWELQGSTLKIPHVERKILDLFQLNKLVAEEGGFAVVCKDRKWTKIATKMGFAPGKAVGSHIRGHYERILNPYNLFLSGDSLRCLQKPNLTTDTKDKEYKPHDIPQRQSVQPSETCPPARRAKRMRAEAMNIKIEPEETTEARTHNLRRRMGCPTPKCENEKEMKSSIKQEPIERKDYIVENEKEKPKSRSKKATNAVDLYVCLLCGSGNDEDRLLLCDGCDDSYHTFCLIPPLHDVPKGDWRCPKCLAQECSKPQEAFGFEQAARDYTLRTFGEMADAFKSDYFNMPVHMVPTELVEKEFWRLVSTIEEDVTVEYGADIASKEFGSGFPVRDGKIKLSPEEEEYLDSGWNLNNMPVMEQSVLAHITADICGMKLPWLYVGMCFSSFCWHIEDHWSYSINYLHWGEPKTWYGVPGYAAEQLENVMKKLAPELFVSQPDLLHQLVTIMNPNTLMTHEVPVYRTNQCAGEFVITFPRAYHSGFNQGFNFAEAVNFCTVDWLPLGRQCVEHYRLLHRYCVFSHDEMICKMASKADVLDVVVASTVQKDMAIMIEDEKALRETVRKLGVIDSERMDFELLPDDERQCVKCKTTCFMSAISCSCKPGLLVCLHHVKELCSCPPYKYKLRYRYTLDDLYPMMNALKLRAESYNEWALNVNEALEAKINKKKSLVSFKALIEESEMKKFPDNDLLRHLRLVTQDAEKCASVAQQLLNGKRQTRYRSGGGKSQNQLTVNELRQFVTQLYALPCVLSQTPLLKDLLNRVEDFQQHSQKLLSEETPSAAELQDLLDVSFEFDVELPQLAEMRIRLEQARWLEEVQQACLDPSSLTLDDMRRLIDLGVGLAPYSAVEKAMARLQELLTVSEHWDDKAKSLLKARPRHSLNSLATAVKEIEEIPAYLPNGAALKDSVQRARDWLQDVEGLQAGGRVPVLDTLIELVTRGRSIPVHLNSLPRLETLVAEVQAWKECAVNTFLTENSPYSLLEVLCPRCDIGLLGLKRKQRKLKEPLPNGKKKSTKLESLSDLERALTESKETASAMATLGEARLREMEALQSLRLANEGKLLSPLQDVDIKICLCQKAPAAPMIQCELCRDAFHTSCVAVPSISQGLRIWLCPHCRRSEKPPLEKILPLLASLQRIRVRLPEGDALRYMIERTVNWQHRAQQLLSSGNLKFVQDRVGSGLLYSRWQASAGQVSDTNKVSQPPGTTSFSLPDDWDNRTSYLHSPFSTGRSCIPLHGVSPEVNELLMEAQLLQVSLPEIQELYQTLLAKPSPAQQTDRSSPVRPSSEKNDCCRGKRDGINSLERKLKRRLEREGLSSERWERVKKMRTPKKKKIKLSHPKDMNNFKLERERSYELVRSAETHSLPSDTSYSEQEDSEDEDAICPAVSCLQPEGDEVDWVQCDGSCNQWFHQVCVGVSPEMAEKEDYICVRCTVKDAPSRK
Summary of the method: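 qHTS format, multiple compound concentrations. Buffer 50 mM HEPES pH 7.5/0.01% Tween-20; 200 nM KDM5BΔAP final; 10 min compound preincubation; substrate-mix levels 12.5 µM peptide, 25 µM α-KG, 0.25 mM NAD⁺; 30 min RT; ΔRFU.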
With `O=c1cc(N2CCOCC2)oc2c(-c3cccnc3)nccc12` the Potency was active: 39.8 µM. For `O=C(NCc1ccco1)/C(=C/c1ccc([N+](=O)[O-])cc1)NC(=O)c1ccco1`, the Potency was “inactive”. For `COc1ccc(NC(=O)Cc2c[nH]c3ncc(-c4ccccc4)cc23)cn1`, the Potency was inconclusive: 31.6 µM [inhibitor, partial curve]. `CCCN(Cc1cc2ccc(C)cc2[nH]c1=O)S(=O)(=O)c1ccc(Cl)cc1` was tested, and the Potency was inconclusive: 35.5 µM [inhibitor, single point]. In the case of `O=C(CC1(O)C(=O)N(Cc2ccccc2)c2ccc(Br)cc21)c1ccccc1` (stereo not given), the activity change, negative = inhibition is reported as inconclusive: -31.6% [inhibitor]. With `O=C(Nc1ccc(F)cc1Cl)Nc1ccccc1C(F)(F)F` the Potency was “inactive”. With `CC(C)N1CCN(C(=O)c2ccc(N3CC4CC(C3)[C@H]3CCCC(=O)N3C4)nc2)CC1` (stereo not given in full) the Potency was inconclusive: 17.8 µM [inhibitor, single point]. In the case of `Cc1ccc(-n2c(-c3ccco3)nc3c(cnn3-c3ccc(C)cc3)c2=O)cc1`, the activity change, negative = inhibition is reported as inconclusive: -42.7% [inhibitor]. `CC(C)CCNC(=O)c1ccc(-c2nnc3ccc(NC(=O)C4CCC4)cn23)cc1` was tested, and the Potency was inconclusive: 39.8 µM [inhibitor, partial curve, poor fit]. For `O=C(NCCCCc1ccccc1)c1nn(-c2ccccc2)nc1CO`, the Potency was inconclusive: 31.6 µM [inhibitor, partial curve, poor fit]. `N#Cc1c(N2CCN(C(=O)C(=O)NCCO)CC2)nc(-c2ccccc2)c2c1CCCC2` was tested, and the Potency was inconclusive: 28.2 µM [inhibitor, partial curve, poor fit]. In the case of `COc1ccc(NC(=O)Cn2nnc(C(=O)Nc3ccc(C)c(F)c3)c2N)cc1Cl`, the Potency is reported as “inactive”. With `Cc1ccc(C)c(N2CCN(C(=O)c3cc4n(n3)CC(c3ccc(Cl)cc3)OC4)CC2)c1` (stereo not given) the Potency was “inactive”. In the case of `CCOC(=O)c1ccc(NC(=O)c2c(NCc3cc(OC)c(OC)cc3OC)sc3c2CCCC3)cc1`, the Potency is reported as inconclusive: 12.6 µM [inhibitor, partial curve, poor fit]. With `CCc1ccc(N2CCn3c2nc2c3c(=O)n(CCCc3ccccc3)c(=O)n2C)cc1` the activity change, negative = inhibition was inconclusive: -34.9% [inhibitor]. In the case of `COc1cccc(Cl)c1NC(=O)N1CCc2c([nH]c3ccccc23)C1C(F)(F)F` (stereo not given), the Potency is reported as “inactive”. For `CN(CC(=O)NC(=O)NCc1ccco1)Cc1cccc(Cl)c1Cl`, the Potency was “inactive”. For `COc1ccc(-n2cc(-c3ccccc3)c3c(NCCc4ccc(OC)c(OC)c4)ncnc32)cc1`, the Potency was inconclusive: 31.6 µM [inhibitor, partial curve, poor fit]. With `CCN1CCN(c2cc3c(cc2F)c(=O)c(S(=O)(=O)c2cc(C)cc(C)c2)cn3CC)CC1` the Potency was inconclusive: 35.5 µM [inhibitor, partial curve, poor fit]. `N#Cc1nc(-c2ccccc2Cl)oc1N1CCCCCC1` was tested, and the Potency was inconclusive: 31.6 µM [inhibitor, partial curve, poor fit]. In the case of `Fc1ccccc1-c1cnc2n[nH]c(-c3ccccc3)c2n1`, the Potency is reported as active: 31.6 µM. For `CCC(=O)Nc1cccc(-c2nc3ccccc3o2)c1`, the Potency was inconclusive: 39.8 µM [inhibitor, partial curve, poor fit]. `O=C(CN1CCN(c2ccc(F)cc2)CC1)Nc1ncc2c(n1)CCCC2=O` was tested, and the Potency was “inactive”. For `COc1ccc(/C=C/C(=O)NCCSCc2ccco2)cc1OC`, the Potency was inconclusive: 22.4 µM [inhibitor, single point]. With `CC(=O)c1ccc(S(=O)(=O)N(C)C(C)c2cc3ccccc3o2)cc1` (stereo not given) the Potency was “inactive”. In the case of `CCOc1cccc(C(=O)Nc2ccc(NC(=O)c3ccc(Br)cc3)cc2)c1`, the activity change, negative = inhibition is reported as inconclusive: -31.3% [inhibitor] [at 11.5 µM]. `COc1ccc(CCNC(C(=O)Nc2cc(C)cc(C)c2)c2ccccc2)cc1` (stereo not given) was tested, and the Potency was inconclusive: 3.98 µM [inhibitor, full curve, poor fit]. For `CCN(c1ccc(C)cc1C)S(=O)(=O)c1nnc(NC(=O)c2ccccc2OC)s1`, the Potency was inconclusive: 31.6 µM [inhibitor, partial curve, poor fit]. For `CCCCCCCc1ccc(-c2ccc(O)c(F)c2)nc1`, the Potency was inconclusive: 25.1 µM [inhibitor, single point]. With `CC(C)c1noc(C(C)Nc2ccc3oc(C(C)(C)C)nc3c2)n1` (stereo not given) the Potency was inconclusive: 28.2 µM [inhibitor, partial curve, poor fit]. With `CCCSc1ccccc1C(=O)Nc1cccc(C)c1C` the Potency was “inactive”. `CCc1ccc(NC(=O)C2CC(=O)N(c3n[nH]c4cccc(F)c34)C2)cc1` (stereo not given) was tested, and the Potency was active: 35.5 µM. For `O=C(CCC[C@H]1NC[C@@H]2C[C@H]1CN(Cc1ccccc1)C2)N1CCN(Cc2ccccc2F)CC1`, the Potency was inconclusive: 11.2 µM [inhibitor, partial curve, poor fit]. In the case of `Cc1sc2c(c1C)c1nc(-c3ccco3)nn1c(=O)n2CCc1ccccc1`, the Potency is reported as “inactive”. In the case of `O=C1Nc2ccc(-c3cccc(C(F)(F)F)c3)cc2C(=O)N2CCN(C(=O)C3CCCC3)C[C@@H]12`, the Potency is reported as inconclusive: 31.6 µM [inhibitor, partial curve, poor fit]. `COc1ccccc1Nc1nc2nccc(-c3ccccc3OC)c2c(=O)[nH]1` was tested, and the Potency was “inactive”. With `O=C(Cc1ccc(F)cc1)N1CC(c2noc(C3CCCN3CC3CC3)n2)C1` (stereo not given) the Potency was inconclusive: 35.5 µM [inhibitor, partial curve, poor fit]. `COc1ccccc1Nc1nc(-c2ccc3c(c2)CCC(=O)N3)cs1` was tested, and the Potency was “inactive”. With `O=C(NCc1cccnc1)c1ccc(/C=C/c2ccc3ccccc3n2)cc1` the Potency was inconclusive: 17.8 µM [inhibitor, partial curve, poor fit]. `O=C(c1ccccc1)N1CCc2nc(-c3ccc(Cl)cc3)nc(-c3ccccc3)c2C1` was tested, and the Potency was inconclusive: 35.5 µM [inhibitor, single point]. In the case of `O=c1c2c(n(Cc3cccnc3)n1CCc1ccccc1)CN(CC1CC1)CC2`, the Potency is reported as inconclusive: 39.8 µM [inhibitor, partial curve, poor fit]. `COCCNc1ncc(-c2ccc(SC)cc2)c2c1OCC2` was tested, and the Potency was active: 5.01 µM. With `O=C(C1CCC1)N1CCC(N2CC3CC(C2)[C@H]2CCCC(=O)N2C3)CC1` (stereo not given in full) the Potency was inconclusive: 14.1 µM [inhibitor, partial curve, poor fit]. With `COc1ccc(C(F)(F)F)cc1N/C=C/c1nnnn1-c1ccc2ccccc2c1` the Potency was inconclusive: 28.2 µM [inhibitor, partial curve, poor fit]. For `FC(F)(F)CN1C2CCC1CN(c1nccc(Nc3ccccc3Cl)n1)C2`, the Potency was inconclusive: 89.1 µM [inhibitor, partial curve]. For `CC1(C)CC(=O)c2cc(C#N)c(SCc3cc4c(cc3Cl)OCO4)nc2C1`, the Potency was “inactive”. `O=C(O)c1ccc(-c2ccc(Br)cc2)s1` was tested, and the Potency was inconclusive: 25.1 µM [inhibitor, partial curve, poor fit]. For `O=C(Cc1ccsc1)N1CCC2(CC1)N=C(c1cccc(Br)c1)NO2`, the Potency was inconclusive: 15.8 µM [inhibitor, partial curve]. `COc1ccccc1-c1cc(C(=O)Nc2ccc3c(c2)C(=O)N2CCC[C@H]2C(=O)N3)[nH]n1` was tested, and the Potency was inconclusive: 31.6 µM [inhibitor, single point]. `CCOc1ccc(-c2nc(S(=O)(=O)c3ccccc3)c(NC)o2)cc1` was tested, and the Potency was inconclusive: 22.4 µM [inhibitor, partial curve, poor fit]. In the case of `Cc1ccc(C(CNC(=O)c2cccs2)N2CCC(C)CC2)o1` (stereo not given), the Potency is reported as “inactive”. For `COc1ccc2[nH]c3c(c2c1)CCNC31CCN(C(=O)Cn2ccnc2)CC1`, the Potency was inconclusive: 4.47 µM [inhibitor, full curve, poor fit]. `CCOC(=O)c1c(-c2ccc(OC)c(OC)c2)csc1NC(=O)c1ccc(F)cc1` was tested, and the Potency was inconclusive: 1.12 µM [inhibitor, partial curve, poor fit]. In the case of `Cc1noc(C)c1-c1cc2cc(C(C)C)oc2c(Nc2ccn(C)n2)n1`, the Potency is reported as inconclusive: 39.8 µM [inhibitor, single point]. In the case of `C=CCOC(=O)/C(C#N)=C\c1cc2ccccc2nc1N1CCOCC1`, the Potency is reported as “inactive”. With `CCN1c2cc(C(=O)NCc3ccccc3C)ccc2C(=O)N2CCCCCC21` (stereo not given) the Potency was inconclusive: 25.1 µM [inhibitor, partial curve, poor fit]. For `COc1ccc(Cc2noc(-c3ccc(N(C)Cc4nonc4C)nc3)n2)cc1`, the Potency was inconclusive: 35.5 µM [inhibitor, partial curve]. In the case of `O=C(NC1CCN(c2cc(-c3cccs3)[nH]n2)C1)c1ccc(F)cc1F` (stereo not given), the Potency is reported as inconclusive: 14.1 µM [inhibitor, partial curve, poor fit]. For `Cc1ccc(OCC(=O)Nc2ccc(S(=O)(=O)N(Cc3ccccc3)c3ccccc3)cc2)cc1`, the activity change, negative = inhibition was inconclusive: -46.5% [inhibitor] [at 11.5 µM]. In the case of `CC(=O)c1ccc(-n2c(C)c(C(C)=O)c3cc(O)ccc32)cc1`, the Potency is reported as inconclusive: 39.8 µM [inhibitor, single point]. `CC#CCn1cc2c3c(cccc31)[C@H](CC(C)C)N[C@H](C(=O)NCc1ccco1)C2` was tested, and the Potency was inconclusive: 31.6 µM [inhibitor, single point]. In the case of `Cc1n[nH]c(C)c1CCCNC(=O)C1CC2(CCNCC2)CN1` (stereo not given), the Potency is reported as inconclusive: 25.1 µM [inhibitor, single point]. With `N#Cc1sc2nccc(Nc3ccccc3)c2c1N` the Potency was inconclusive: 25.1 µM [inhibitor, single point]. In the case of `CC(C)CC(=O)N1CCCN(c2nnc3ccccn23)CC1`, the Potency is reported as active: 25.1 µM. In the case of `CC(C)c1ccc(-c2cc(C(=O)O)c3ccccc3n2)cc1`, the Potency is reported as inconclusive: 39.8 µM [inhibitor, single point].
Further: nearly all actives have a fitted effect of over 70% in size.
Potency means the concentration at half of the fitted maximal effect; tags describe the fitted curve by direction and shape.
Wherever activity change, negative = inhibition is given: 0% is about no effect.
